Structures are written as SMILES. Some of the results follow. Further columns of the screen follow, without active or inactive calls. Words in brackets tell the shape of the fitted curve; partial curves, single points and poor fits give uncertain potencies.

A word on the AC50: it is the concentration at which the activity in the assay is half-maximal.
Tags tell the direction and shape of the fitted curve.

The nature of this test: qHTS drug screen for cell cycle checkpoint inhibitors in PARPi-resistant BRCA-mutant ovarian cancer cell lines. (AID 1963452). The conditions noted are these: PEO1/OlaR viability, CellTiter-Glo luminescence, 96 h; measured here: PEO1 parental viability. The procedure, abridged:
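PEO1, PEO4 and PEO1/OlaR ovarian cancer cells, 600 per well, exposed 96 h at 37C to a dilution series. Viability read by CellTiter-Glo luminescence, normalized to DMSO and empty wells; activity summarized as Z-AUC.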
Turning to `CNC(=O)c1ccc(Nc2ncc(C(F)(F)F)c(NCc3nccnc3N(C)S(C)(=O)=O)n2)cc1`, the half-maximal activity concentration (AC50) was 6.92 µM [falling, single point].

With `COc1ccc([C@@H](O)[C@@H](C)Oc2ccc([C@H]3O[C@H](c4ccc(O[C@H](C)[C@H](O)c5ccc(OC)c(OC)c5)c(OC)c4)[C@H](C)[C@H]3C)cc2OC)cc1OC`, the half-maximal activity concentration (AC50) was 0.0039 µM [falling, full curve, poor fit].

Regarding `COc1ccc(N2C(=O)N(c3c(C)cccc3Cl)Cc3cnc(Nc4ccc(C5CCN(C)CC5)cc4OC)nc32)nc1`, the AC50 was 2.75 µM [falling, partial curve, poor fit].

Regarding `COCCNCc1ccc(-c2cc3nccc(Oc4ccc(NC(=S)NC(=O)Cc5ccc(F)cc5)cc4F)c3s2)nc1`, the AC50 was 11 µM [falling, partial curve].

Regarding `CCCCCCOC(=O)NC(=N)c1ccc(NCc2nc3cc(C(=O)N(CCC(=O)OCC)c4ccccn4)ccc3n2C)cc1`, the concentration at half-maximal activity (AC50) is 15.5 µM [falling, partial curve, poor fit].

Regarding `CC(=O)NCC(=O)N1[C@@H]2CC[C@H]1c1ccc(Nc3ncc(C(F)(F)F)c(NC4CCC4)n3)cc12`, the concentration at half-maximal activity (AC50) is 8.71 µM [falling, partial curve].

As to `O=C(NOCC(O)CO)c1ccc(F)c(F)c1Nc1ccc(I)cc1F` (stereo unspecified), the AC50 was 0.245 µM [falling, full curve].

As to `CC(C)[C@](O)(c1ccc2cc(OC(F)F)c(OC(F)F)cc2c1)c1cn[nH]n1`, the half-maximal activity concentration (AC50) is 15.5 µM [falling, partial curve, poor fit].

For the compound `CN1CCN(C2CCN(C(=O)Nc3cc(Oc4ccc(NC(=O)C5(C(=O)Nc6ccc(F)cc6)CC5)c(F)c4)ccn3)CC2)CC1`, the AC50 was 19.5 µM [falling, single point].

For the compound `O=C(CCCCCCC(=O)N/N=C/c1ccc(N(c2ccccc2)c2ccccc2)cc1)NO`, the concentration at half-maximal activity (AC50) was 15.5 µM [falling, single point].

Turning to `CN(C)CCN1C(=O)c2cccc3cc(NC(N)=O)cc(c23)C1=O`, the AC50 was 27.5 µM [falling, single point].

On to `CC(C)n1nc(-c2cc3cc(O)ccc3[nH]2)c2c(N)ncnc21`, for which the concentration at half-maximal activity (AC50) is 6.16 µM [falling, partial curve].

For `C[C@H](NC(=O)/C(C#N)=C/c1cccc(Br)n1)c1ccccc1`, the half-maximal activity concentration (AC50) was 15.5 µM [falling, single point].

On to `Nc1nc(Cl)nc2c1ncn2[C@@H]1O[C@H](CO)[C@@H](O)[C@@H]1F`, for which the half-maximal activity concentration (AC50) is 0.245 µM [falling, full curve].

For `C=CC(=O)N1CC/C(=C\c2ccc(F)c([N+](=O)[O-])c2)C(=O)/C(=C/c2ccc(F)c([N+](=O)[O-])c2)C1`, the AC50 is 0.174 µM [falling, full curve].

As to `CCNCCS(=O)(=O)NC[C@@]1(c2ccccc2)SC(NC(=O)C(C)(C)C)=NN1C(=O)C(C)(C)C`, the AC50 is 0.0062 µM [falling, full curve].
